From the supplement of paper PMC10126150
Values marked as one replicate rest on one cluster of the flow cell; about a third of the high ones do not repeat.

Each sequence was assayed on ATP (assay: switch fluorescence ratio, 500 uM ATP over buffer (Cy3 cluster intensity, sum of 5 cycles each) (fold (ratio)); higher = stronger signal-on switching upon ATP binding; sequences stand for … in TCGTCGGCAGCGTCAGATGTGTATAAGAGACAGTTTTTTTTTTTTTTTTTTTTTTTTT…TC). Conditions: aptamer strand: ATP DNA aptamer (quencher-CACCTGGGGGAGTATTGCGGAGGAAGG + anchor), 100 nM annealed; ATP concentration: 500 uM; one replicate.
Procedure, shortened: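 For every switch-domain sequence, the fluorescence ratio is the mean of per-cluster values, each being summed target-cycle Cy3 intensity over summed buffer-cycle Cy3 intensity. Clusters outside 100-1000 RFU were excluded. On a modified Illumina MiSeq flow-cell, the Cy3-labelled switching-strand clusters were annealed to 100 nM quencher-labelled ATP aptamer, imaged in selection buffer and then after 15 min with 500 uM ATP at 22 °C. Five such cycles were run, with NaOH stripping and re-annealing between them.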
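Also: ATP exposure 15 min at 22 °C before imaging.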

Sequence	switch fluorescence ratio
GCGGAAACAG	1
GGACGCGAAG	1.02
GAAGAATACG	1.03
CTACTCTGAT	0.978
TCCCTTTGTT	0.995
TGACCGATTA	0.994
AAAGTGGATA	1.01
CCCTTAGCTT	1.1
CAGACCCAGC	1.02
GTCAGGCTTA	1
CCCAATCTGA	1.11
TAGGCGCTAC	1.69
GCTTGACCTT	1.03
TCTCACGTTC	1.06
AAGTCGCTAG	1
GAGAGTAAAG	1.03
GCCCGATGGT	1.03
TTGATTTATG	1.02
TCGGTCATGT	0.99
CTTGTGATCC	1.01
AAGTCGCCTT	0.964
TCGGTGATCA	1.04
TCGCTGATTC	1.35
GTTTGTTCTC	1.03
GAAATGAACT	1
GGGCACGGGT	0.975

Sequence	switch fluorescence ratio
TGTCGCTCTT	0.988
GTCCCGGGGG	1.06
TTGACAGACT	1.01
TCCACGATAA	1.62
TACCGCGGCA	0.988
TGAGCCGATT	1.05
AGCGACACGG	0.991
ACTCCTATAA	1.34
CGGAATCCAC	1.27
TGGTGGCCGA	1.02
CTCTGAGTG	1.02
CCCCGGAAAT	0.981
CTCGACGCTT	1.26
AATATCTAGT	1.02
TAAAAAGG	0.998
TACTTGATCA	1.01
GCTTAATTCT	0.985
TGGAGTCGAG	1.05
ATCGCGACTT	1.04
TCAGCCAGGG	1.29
ATTTGCCAGT	0.968
ATTGGTGTA	1.03
CCACTTCGCG	1.11
TTGGCTATGC	1.05
CGGGAGTGAT	0.976
GGGTGTGGCT	0.964

Sequence	switch fluorescence ratio
GGCATAATAT	1.02
TACCCAGTTC	0.997
TATGTAGGGT	0.983
GGCAATAGTG	1.17
TAATCCAGGT	1.11
TGGGGAGTA	0.965
TAGTCTTATC	1.01
TAGTTCCGTA	1.03
TCACCACCGA	1.11
CAAATTCAAA	1.03
GTTGCGTCCC	1.01
CCCCAAGGCG	3.11
TAGCGATCGT	1.02
AGAACCGCGT	1.02
AAACCGGTAC	2.35
TTAATGGGAG	0.978
TTTTAGTCGA	0.992
CGGTAGGCG	0.944
CATACCCATG	0.98
TAAAATTGAC	1.01
CGGGTAATGC	2.07
CATCATGGG	1.02
TGTCATATAG	1.04
TCCAATCGGG	1.01
TATAATGAT	0.995
TATCGAACGT	0.976

Sequence	switch fluorescence ratio
CGGCCGGGTG	1.02
CTAATTTGAG	1.01
AAAAAATGTA	0.967
AAAGGGATGA	0.98
GGAAGTGGCC	0.968
ATGCAATCGC	1.47
TGCGAAGGCG	0.999
CAATAGGATA	1.05
GGCTTCTTTT	0.972
GCCAGTCCGC	1.1
AGACAAGTAG	0.966
ACCATCGTAT	1.46
CATCTGGCGT	1.02
AGGGTCCTTG	1.07
ACGAGTTCCG	1.09
GAAAAAAGAA	0.974
TAAACAGCGG	1.02
AAACAATACC	1.6
TTTGGAGCGG	0.988
GTTCGCTGGT	1.02
ATTCGATGGT	0.979
ATTATCATGG	1.01
AGGGCAAACC	1.05
